The source of these data is PMC4336329 (PLoS ONE, 2015).

The whole screen tested about 310,000 compounds, of which about 2,200 (0.71%) showed an effect of 50% or more. Effects have a minus sign here. This is one part of the list.

human ether-à-go-go-related gene (hERG) potassium channel, sequence (Q12809 whole entry, looked up): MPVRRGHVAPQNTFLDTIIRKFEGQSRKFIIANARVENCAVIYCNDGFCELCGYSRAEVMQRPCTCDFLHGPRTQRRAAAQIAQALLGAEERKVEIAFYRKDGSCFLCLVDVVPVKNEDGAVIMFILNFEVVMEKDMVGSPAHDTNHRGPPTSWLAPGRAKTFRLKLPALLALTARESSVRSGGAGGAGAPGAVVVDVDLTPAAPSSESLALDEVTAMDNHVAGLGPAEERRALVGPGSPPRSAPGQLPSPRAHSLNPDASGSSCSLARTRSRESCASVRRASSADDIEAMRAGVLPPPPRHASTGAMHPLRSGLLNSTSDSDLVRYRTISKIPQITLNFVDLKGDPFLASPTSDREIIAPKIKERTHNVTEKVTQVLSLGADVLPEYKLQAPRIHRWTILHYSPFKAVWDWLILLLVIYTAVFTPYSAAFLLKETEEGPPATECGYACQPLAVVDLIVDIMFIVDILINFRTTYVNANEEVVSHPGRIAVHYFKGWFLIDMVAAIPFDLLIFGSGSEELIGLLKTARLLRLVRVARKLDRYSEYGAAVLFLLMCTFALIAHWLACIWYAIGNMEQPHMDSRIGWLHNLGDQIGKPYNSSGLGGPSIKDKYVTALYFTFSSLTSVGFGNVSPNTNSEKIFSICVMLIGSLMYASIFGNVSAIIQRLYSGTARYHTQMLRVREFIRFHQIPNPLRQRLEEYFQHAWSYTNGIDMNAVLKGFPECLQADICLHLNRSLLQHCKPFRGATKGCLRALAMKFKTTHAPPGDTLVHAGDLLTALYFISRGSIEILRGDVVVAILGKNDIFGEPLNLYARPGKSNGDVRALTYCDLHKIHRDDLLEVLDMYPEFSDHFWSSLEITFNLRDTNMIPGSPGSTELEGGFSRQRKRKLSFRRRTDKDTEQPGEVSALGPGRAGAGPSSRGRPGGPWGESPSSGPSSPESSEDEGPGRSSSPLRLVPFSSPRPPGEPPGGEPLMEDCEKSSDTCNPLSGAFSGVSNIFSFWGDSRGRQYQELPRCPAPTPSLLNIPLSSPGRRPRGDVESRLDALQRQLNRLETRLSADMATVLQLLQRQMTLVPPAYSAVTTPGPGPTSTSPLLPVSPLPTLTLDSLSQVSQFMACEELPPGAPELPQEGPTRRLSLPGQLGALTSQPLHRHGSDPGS

The assay concerns the target human ether-à-go-go-related gene (hERG) potassium channel (human, UniProt Q12809). Briefly: primary screen, population patch clamp on CHO cells stably expressing hERG.
For `CCOc1ccc(NC(=O)Nc2ccc3c(c2)nnn3C)cc1`, the “hERG current change (%, negative = inhibition) at 1uM” value is listed as 1.68%.

With `COc1ccccc1C(=O)N1CCCC(c2nc(-c3cc(OC)c(OC)c(OC)c3)no2)C1` (stereo not drawn), the “hERG current change (%, negative = inhibition) at 1uM” value is -7.93%.

On to `Cc1cccc(CCNC(=O)C2CCCN(c3cnccn3)C2)c1` (stereo not drawn), for which the “hERG current change (%, negative = inhibition) at 1uM” value turned out to be 9.86%.

Consider `CCCN(CC(=O)Nc1c(C)cccc1CC)C(=O)SCC`, for which the “hERG current change (%, negative = inhibition) at 1uM” value was 8.18%.

As to `NC(=O)CC(NC(=O)Cc1cccc2ccccc12)c1ccc(N2CCc3ccccc3C2)c([N+](=O)[O-])c1` (stereo not drawn), the “hERG current change (%, negative = inhibition) at 1uM” value came out at 9.64%.

Turning to `CN(C(=O)CCN1C(=O)c2ccccc2C1=O)c1ccccc1`, the “hERG current change (%, negative = inhibition) at 1uM” value came out at 15.8%.

In the case of `O=C(Nc1ccc(C(=O)O)cc1)/C(=C\c1ccc2c(c1)OCO2)NC(=O)c1ccccc1`, the “hERG current change (%, negative = inhibition) at 1uM” value was 15.6%.

`Cc1ccc(NC(=O)C(=O)NCC2OCCc3ccccc32)cc1` (stereo not drawn): the “hERG current change (%, negative = inhibition) at 1uM” value was determined as 10%.

On to `O=C1CNC(=S)N1Cc1cccc(Cl)c1`, for which the “hERG current change (%, negative = inhibition) at 1uM” value was determined as 21.2%.

Regarding `CCOC(=O)Cn1c(=O)cnc2ccccc21`, the “hERG current change (%, negative = inhibition) at 1uM” value amounted to 7.79%.

Regarding `O=C1C2CC=CCC2C(=O)N1CC(=O)N(Cc1ccccc1)C1CCS(=O)(=O)C1` (stereo not drawn), the “hERG current change (%, negative = inhibition) at 1uM” value is -10.4%.

As for `NC(=O)C(c1ccccc1)c1ccc(C(=O)c2ccccc2)cc1` (stereo not drawn), the “hERG current change (%, negative = inhibition) at 1uM” value worked out at 7.86%.

`CNC(=O)c1ccsc1NC(=O)c1ccc(Cl)s1`: the “hERG current change (%, negative = inhibition) at 1uM” value is on record as 10.5%.

On to `Cc1cc(C=O)c(C)n1-c1ccc(N2CCCC2)c([N+](=O)[O-])c1`, for which the “hERG current change (%, negative = inhibition) at 1uM” value turned out to be 10.4%.

As for `COc1cc(NC(=O)Nc2ccc3c(c2)OCO3)cc(OC)c1OC`, the “hERG current change (%, negative = inhibition) at 1uM” value is 14.5%.

Turning to `Cc1nc(CNC(=O)C2CCC(=O)N(Cc3cccc(F)c3)C2)sc1C` (stereo not drawn), the “hERG current change (%, negative = inhibition) at 1uM” value was found to be 8.42%.

With `COCCCn1c(=O)c2sccc2n(Cc2ccccc2C)c1=O`, the “hERG current change (%, negative = inhibition) at 1uM” value is reported as 9.9%.

For `Cc1ccc(SCCC(=O)N2CCC(C)CC2)cc1`, the “hERG current change (%, negative = inhibition) at 1uM” value worked out at 5.76%.

With `Nc1nc(Cl)cc(N2CCOCC2)n1`, the “hERG current change (%, negative = inhibition) at 1uM” value turned out to be 12.9%.

As for `COc1ccccc1CNC(=O)CN(c1ccc(C)cc1)S(=O)(=O)c1c(C)noc1C`, the “hERG current change (%, negative = inhibition) at 1uM” value was determined as 3.42%.

As for `COc1ccccc1C(=O)Nc1ccc(C(=O)N2CCCC2)cc1`, the “hERG current change (%, negative = inhibition) at 1uM” value is given as -0.807%.

Turning to `CCc1ccc2oc(-c3ccc(NC(C)=O)cc3)nc2c1`, the “hERG current change (%, negative = inhibition) at 1uM” value was 10.8%.

In the case of `CCOCCn1c2ccccc2c2nc3ccccc3nc21`, the “hERG current change (%, negative = inhibition) at 1uM” value came out at 9.09%.

On to `Cc1nn(-c2cccc(Cl)c2)c2nc(-c3ccncc3)cc(C(=O)N3CCOCC3)c12`, for which the “hERG current change (%, negative = inhibition) at 1uM” value was 7.13%.

With `CCN(CC)c1ccc(CNc2nc3ccccc3n2C(C)C)cc1`, the “hERG current change (%, negative = inhibition) at 1uM” value is 4.8%.

On to `Cc1cccc(C)c1NC(=O)CN(C)C(=O)c1cccc(S(=O)(=O)N2CCN(c3ccccc3)CC2)c1`, for which the “hERG current change (%, negative = inhibition) at 1uM” value is reported as -4.32%.

In the case of `Cl.Clc1ccc(Cn2c(CN3CCCC3)nc3ccccc32)cc1`, the “hERG current change (%, negative = inhibition) at 1uM” value is -39.4%.

Turning to `C/C=C/C(=O)OCC(=O)Nc1cccc(Br)c1`, the “hERG current change (%, negative = inhibition) at 1uM” value was determined as 20.8%.

`COC(=O)Cc1c(O)ccn(CCc2ccc(S(N)(=O)=O)cc2)c1=O`: the “hERG current change (%, negative = inhibition) at 1uM” value came out at 4.32%.

Consider `CCOC(=O)C1(O)CSc2nc3sc(C(=O)O)c(C)c3c(=O)n21` (stereo not drawn), for which the “hERG current change (%, negative = inhibition) at 1uM” value was determined as 6.5%.

As for `O=C(O)c1ccccc1-c1ccccc1C(=O)NCc1cccc(C(F)(F)F)c1`, the “hERG current change (%, negative = inhibition) at 1uM” value is recorded as 1.18%.

With `O=C(CCc1nc(-c2ccc(Cl)cc2)no1)NCC1CCCO1` (stereo not drawn), the “hERG current change (%, negative = inhibition) at 1uM” value came to 14.3%.

As for `O=S(=O)(Nc1nc(SCc2ccc(Cl)cc2)n[nH]1)c1ccccc1`, the “hERG current change (%, negative = inhibition) at 1uM” value was 11.2%.

In the case of `CCCCOCP(=O)(CCCC)COCCCC`, the “hERG current change (%, negative = inhibition) at 1uM” value was 8.53%.

As for `Cc1cc(C)n(C(=O)c2ccc([N+](=O)[O-])cc2[N+](=O)[O-])n1`, the “hERG current change (%, negative = inhibition) at 1uM” value stood at 8.62%.

On to `O=C(Nc1ccccc1)c1cccc(C(=O)Nc2ccccc2)n1`, for which the “hERG current change (%, negative = inhibition) at 1uM” value is reported as 15.6%.

As to `C=CCSc1cc(C)nc2c(-c3ccccc3)c(C)nn12`, the “hERG current change (%, negative = inhibition) at 1uM” value was 9.34%.

As to `CCn1c(O)c(/C=N/N=C/c2ccc(OC)cc2)c2cc(C3=NNC(=O)CC3)ccc21`, the “hERG current change (%, negative = inhibition) at 1uM” value worked out at 10.4%.

In the case of `Cc1cc2oc(=O)cc(CN3CCc4ccccc43)c2cc1Cl`, the “hERG current change (%, negative = inhibition) at 1uM” value came to 11.9%.

Consider `Cc1ccc(NC(=O)CSc2nc3ccc(Nc4nc(N5CCOCC5)nc(N5CCOCC5)n4)cc3s2)cc1`, for which the “hERG current change (%, negative = inhibition) at 1uM” value is recorded as 13.6%.

With `COc1cc(NC(=O)c2ccc(Br)o2)ccc1NC(=O)c1ccccc1Cl`, the “hERG current change (%, negative = inhibition) at 1uM” value is recorded as 3.98%.

`COc1ccc(C(=O)NC(=S)Nc2ccc(N3CCN(C(C)=O)CC3)cc2)cc1[N+](=O)[O-]`: the “hERG current change (%, negative = inhibition) at 1uM” value was determined as 13.2%.

On to `COc1ccc(CNc2oc(COc3ccc(Cl)cc3)nc2C#N)cc1`, for which the “hERG current change (%, negative = inhibition) at 1uM” value is on record as 10.1%.

On to `COc1ccccc1NC(=O)CCNC(=O)Cn1ccc2ccccc2c1=O`, for which the “hERG current change (%, negative = inhibition) at 1uM” value is on record as 10.5%.

Turning to `CCCCCCn1c(O)c(C=NC2CCN(Cc3ccccc3)CC2)c(=O)[nH]c1=O`, the “hERG current change (%, negative = inhibition) at 1uM” value is given as 2.55%.

On to `CCOC(=O)C(NC(C)=O)(Nc1ccc(S(N)(=O)=O)cc1)C(F)(F)F` (stereo not drawn), for which the “hERG current change (%, negative = inhibition) at 1uM” value is given as 14.4%.

Consider `CCOC(=O)N1CCN(c2nc(N(c3ccccc3)c3ccccc3)nc(-n3ccnc3)n2)CC1`, for which the “hERG current change (%, negative = inhibition) at 1uM” value came to 10.5%.

`CCOC(=O)Cc1c(C)c2c(O)cc(O)cc2oc1=O`: the “hERG current change (%, negative = inhibition) at 1uM” value is -8.39%.

On to `Cc1cc(O)ccc1Nc1nc(-c2cccnc2)cs1`, for which the “hERG current change (%, negative = inhibition) at 1uM” value came out at 7.35%.

On to `CCOc1ccc(N2C(=O)S/C(=C\c3cccn3C)C2=O)cc1`, for which the “hERG current change (%, negative = inhibition) at 1uM” value turned out to be 9.14%.

With `O=C(COC(=O)c1cccc(Cl)c1)NC1CCS(=O)(=O)C1` (stereo not drawn), the “hERG current change (%, negative = inhibition) at 1uM” value was -0.0709%.

Take `O=[N+]([O-])c1ccc(F)cc1OCc1cccc(S(=O)(=O)N2CCOCC2)c1`: the “hERG current change (%, negative = inhibition) at 1uM” value is -7.36%.

Consider `Cc1ccc(N2CN(Cc3cccnc3)CNC2=S)c(C)c1`, for which the “hERG current change (%, negative = inhibition) at 1uM” value is 2.21%.

As to `NC1=C(c2ccccc2)C(=O)NC1=O`, the “hERG current change (%, negative = inhibition) at 1uM” value came out at 14.5%.

In the case of `COc1cc([N+](=O)[O-])ccc1N=Nc1c(N)[nH]n(-c2ccccc2)c1=O`, the “hERG current change (%, negative = inhibition) at 1uM” value is on record as 7.05%.

Take `COc1ccc(-c2nnc(N)s2)cc1`: the “hERG current change (%, negative = inhibition) at 1uM” value came to 11.5%.

Consider `COc1ccc2oc(=O)c(/C(C)=N/Nc3nc(-c4cc(C)ccc4C)cs3)cc2c1`, for which the “hERG current change (%, negative = inhibition) at 1uM” value is on record as 10.8%.
